Test results from PubChem BioAssay (NCI).
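In this assay, cells in 96-well plates receive the compound at five concentrations for 48 hours. Endpoints are linearly interpolated between the surrounding concentrations. Abbreviation: GI50, concentration required for 50% inhibition of growth. TGI: total growth inhibition.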

Each compound was assayed on NCI-H322M lung (assay: NCI tumour cell line growth inhibition, 48 h).
For C[C@]12CC[C@@H]3c4ccc(O)cc4CC[C@H]3[C@@H]1CC[C@@H]2NS(=O)(=O)c1cccc(C(F)(F)F)c1, the GI50 was 10.1 µM and the TGI was 21.8 µM.
In the case of OCC1OC(NCCNCCNC2OC(CO)C(O)C(O)C2O)C(O)C(O)C1O (centres undefined), the TGI is reported as greater than 100 µM.
Fc1cccc2cc3ccc4cccc5ccc(c12)c3c45 showed a TGI greater than 100 µM.
Cc1ccc(/C=C2/SC(Nc3nc(-c4nc(NC5=NC(=O)/C(=C\c6ccc(C)cc6)S5)sc4C)c(C)s3)=NC2=O)cc1 showed a GI50 of 0.892 µM and a TGI of 8.53 µM.
With CC1=C(O)C(=O)C[C@]2(C)[C@H]3CC=C4[C@@H]5CC(C)(C)CC[C@@H]5C(=O)[C@H](O)[C@@]4(C)[C@]3(C)CC[C@@H]12 the TGI was greater than 50 µM.
Cc1cc(NC(=O)NC(=O)c2ccccc2N)ccc1Oc1ncc(Br)cn1 was tested, and the TGI was greater than 100 µM.
Work on O=C1c2cc3c(cc2CC12Cc1cc4c(cc1C2=O)CCC4)CCC3 yielded a TGI greater than 100 µM.
For CC(/C(=N/NC(=O)C(N)=O)c1c(Cl)ccc(Cl)c1O)C1(O)C(=O)Nc2ccccc21 (centres undefined), the TGI was greater than 100 µM.
Compound CN(c1ccc(NC(=O)Nc2ccc(OC(F)(F)F)cc2)cc1)c1ccnc(Nc2cccc(S(N)(=O)=O)c2)n1 has a GI50 of 4.27 µM and a TGI of 8.85 µM.
Cc1nc2sc(C(=O)Nc3cccc4ccccc34)c(N)c2cc1C(=O)/C=C/c1ccccc1 showed a GI50 of 1.81 µM and a TGI greater than 50 µM.
COc1cc(Cn2c(=S)ss/c2=N\C(=S)N(C)C)cc(OC)c1OC showed a TGI greater than 100 µM.
NC(=O)c1cc([N+](=O)[O-])c(Cl)c([N+](=O)[O-])c1 gave a GI50 of 16.3 µM and a TGI of 30.7 µM.
In the case of CCOC(=O)C1=C(NNC(=O)Cc2ccccc2)CSC1=Nc1ccccc1, the TGI is reported as greater than 100 µM.
Compound NC(=O)c1oc([N+](=O)[O-])c(-c2ccccc2)c1-c1ccccc1 has a TGI of 49.3 µM.
Compound Cn1ccnc1C(=O)/C=C/c1ccc(CC(=O)Nc2ccc(S(F)(F)(F)(F)F)cc2)cc1 has a GI50 of 2.11 µM and a TGI of 4.58 µM.
Work on CCOP1(=O)C=C(Sc2ccc([N+](=O)[O-])cc2[N+](=O)[O-])C(C)(C)O1 (centres undefined) yielded a TGI of 39.2 µM.
In the case of Cc1nc(-n2[nH]c(C)c(CCO)c2=O)[nH]c(=O)c1CCO, the TGI is reported as greater than 100 µM.
In the case of C/C(=N\Nc1ccccc1Br)c1cccc(/C(C)=N/Nc2ccccc2Br)n1, the TGI is reported as greater than 100 µM.
O=C1NC(=S)NC(=O)C1C(c1ccc([N+](=O)[O-])cc1)C1C(=O)NC(=S)NC1=O was tested, and the TGI was greater than 100 µM.
CCOC(=O)c1sc2nc(SC)nc3c2c1NCN3c1ccc2c(c1)OCCCO2 was tested, and the TGI was greater than 100 µM.
For CN(C)CCNC(=O)c1ccc(C(=O)NCCN(C)C)c2nc3ccccc3cc12, the TGI was 4.85 µM.
In the case of CS/C(=N\C(=S)Nc1ccccc1)Nc1ccccc1, the TGI is reported as greater than 100 µM.
Compound CC1CC(c2cccc3c2OCO3)=Nc2ccccc2S1 (centres undefined) has a TGI greater than 100 µM.
C=CC1=C[C@@H]2[C@@H]3O[C@]4(CC[C@H](O4)[C@@H](C)C[C@@H](O)C3=O)C[C@H](O)C3=NCC[C@@]32CC1 showed a GI50 of less than 0.00333 µM and a TGI of 0.00973 µM.
Work on C=C1CCC2CC1[C@@H](C(=O)c1c[nH]c3ccccc13)NC2(C)C (some centres undefined) yielded a TGI greater than 37.5 µM.
In the case of CCCCn1cnnc1NS(=O)(=O)c1cc(C)c(Cl)cc1SCC(=O)O, the TGI is reported as greater than 10 µM.
CCCc1c(O)c(=O)c2c(OC)cc(OC)c3c4c(OC)cc(OC)c5c(=O)c(O)c(CCC)c(c1c23)c54 was tested, and the TGI was 10.7 µM.
Compound Cc1ccc2cc3c(ccc4ccccc43)c3c2c1CC3 has a TGI greater than 100 µM.
In the case of COc1ccc(C2=NN(C(=O)COc3ccc(Cl)cc3)C(O)(c3ccc(Cl)cc3)C2)cc1 (centres undefined), the TGI is reported as greater than 100 µM.
O=C1c2ccc3c4c5ccc(c24)C(=O)N1CCCOCCCCOCCCNCc1ccc(cc1)CNCCCOCCCCOCCCN(C3=O)C5=O showed a GI50 of 1.02 µM and a TGI of 2.43 µM.
NC(=NC1CCCCCCC1)c1ccc(N2CCN(c3ccc(C(N)=NC4CCCCCCC4)cc3)CC2)cc1 gave a GI50 of 12.7 µM and a TGI of 26.9 µM.
For C[C@H]1[C@H](C)CC[C@]2(C(=O)N3CCN(C)CC3)CC[C@]3(C)C(=CC[C@@H]4[C@@]5(C)C/C(=C/c6cccnc6)C(=O)C(C)(C)[C@@H]5CC[C@]43C)[C@H]12, the GI50 was 1.37 µM and the TGI was 2.68 µM.
COc1ccc(C2C(=O)C(Cl)N2Nc2nc(C)cc(=O)[nH]2)cc1OC (centres undefined) gave a TGI greater than 100 µM.
With Nc1ccc(C(=O)NN2C(=O)C(Cl)C2c2cc(Br)ccc2O)cc1 (centres undefined) the TGI was greater than 100 µM.
In the case of CCn1c2ccccc2c2ccc3c(c21)C(=O)c1ccccc1C3=O, the TGI is reported as greater than 100 µM.
COc1ccc(-c2nnc(SCC(=O)Nc3ccc(/C(C)=N\O)cc3)n2-c2ccccc2)cc1OC was tested, and the GI50 was 4.41 µM and the TGI was greater than 100 µM.
C=CCOC1OC(CS(=O)(=O)O)C(O)C(O)C1O (centres undefined) gave a TGI greater than 100 µM.
Work on Cc1nc(Nc2ccc(F)cc2)c2sc(=S)n(-c3ccc(F)cc3)c2n1 yielded a TGI of 25.3 µM.
Compound CN(CC(=O)O)c1ccc(/C=C/c2ccnc3ccccc23)cc1 has a TGI of 36 µM.
Cc1cccc(NC(=O)c2cc3cc(N=Nc4ccccc4Cl)ccc3oc2=O)c1 gave a TGI greater than 100 µM.
CC(C)C1OC2(C)OC(=N)C1(C#N)C(C#N)(C#N)C2C (centres undefined) gave a TGI greater than 100 µM.
Compound CCN(CC)c1ccc(C2SCC(=O)N2c2ccc(NC(=O)c3ccc(N4C(=O)CSC4c4ccc(N(CC)CC)cc4)cc3)cc2)cc1 (centres undefined) has a TGI greater than 100 µM.
c1cc(CSP234N5CCN2CCN3CCN4CC5)ccc1CSP123N4CCN1CCN2CCN3CC4 showed a TGI greater than 100 µM.
C=C1C(=O)OC2C1CC[C@H](C)C13OC(=O)CC1[C@@]23C (some centres undefined) gave a TGI greater than 100 µM.
COc1ccn2c(C(C)=O)cc(C(=O)c3ccc4c(c3)Sc3ccccc3N4)c2c1 was tested, and the GI50 was 0.163 µM and the TGI was greater than 100 µM.
With CCN(CC)CCC1CCCCN1CC(=O)N1c2ccccc2NC(=O)c2ccccc21 (centres undefined) the TGI was greater than 100 µM.
For O=c1c2cccc3cccc(c4oc5c6cccc7cccc(c(=O)c5c14)c76)c32, the TGI was greater than 31.6 µM.
O=C(/C=C/c1cccs1)c1ccc(Nc2nc(Nc3ccc(F)cc3)nc(Nc3ccc(F)cc3)n2)cc1 was tested, and the GI50 was 15.2 µM and the TGI was greater than 100 µM.
CC(=O)Nc1ccccc1C=C1c2ccccc2-c2ccccc21 gave a TGI greater than 100 µM.
O=C(O)C(O)Cc1ccccn1 (centres undefined) showed a TGI greater than 100 µM.
For C/C([O-])=C1\Cc2ccccc2C1=O.C/C([O-])=C1\Cc2ccccc2C1=O.CC[O-].CC[O-].[Ti+4], the GI50 was 32.1 µM and the TGI was greater than 100 µM.
Work on COc1ccc(C(=O)c2sc(Nc3ccccc3)nc2N)cc1 yielded a TGI greater than 100 µM.
With O=C(c1ccco1)n1c2ccc(Br)cc2c2nc3ccccc3nc21 the TGI was greater than 100 µM.
In the case of Cc1nc2ccc(F)cc2c2c1CCO2, the TGI is reported as greater than 100 µM.
COc1ccc(N(C)Sc2ccccc2)cc1 showed a TGI greater than 100 µM.
In the case of C=CC(=O)N1CCN(c2nc(OC[C@@H]3CCCN3C)nc3c2CCN(c2cccc4cccc(C)c24)C3)C[C@@H]1CC#N, the GI50 is reported as 2.74 µM and the TGI is reported as 11 µM.
O=C1/C(=C/c2ccc([N+](=O)[O-])o2)Oc2ccc(Br)cc21 was tested, and the GI50 was 15.1 µM and the TGI was 31.1 µM.
COc1ccccc1N1C(Cl)C(=O)C1c1c[nH]c2ccccc12 (centres undefined) gave a TGI greater than 100 µM.
With C=C(C)C(=O)OC1CC2=CC(CC3(C)OC3C3OC(=O)C(=C)C13)OC2=O (centres undefined) the TGI was 31 µM.
COC(=O)C12OC(C)(C(CC(=O)OC(C)(C)C)C1=O)C1C(=O)N(c3ccccc3)C(=O)C12 (centres undefined) showed a TGI greater than 100 µM.
Work on COc1ccc(-c2cc(-c3ccccc3)nc(N3CCN(CCNc4ccnc5cc(Cl)ccc45)CC3)n2)cc1 yielded a GI50 of 10.3 µM and a TGI of 23.3 µM.
With Cc1cnc(/N=c2\sc(C)cn2-c2ncc(C)s2)s1 the TGI was greater than 100 µM.
With CCc1ccccc1N1CCN(C(=O)c2cc(OC)c(OC)c(OC)c2)CC1 the TGI was greater than 100 µM.
For COc1ccc(C(=O)COc2cccc(/C=C3\CSc4ccccc4C3=O)c2)cc1, the GI50 was 13.9 µM and the TGI was 33.7 µM.
In the case of Cc1ccc2c(c1C)-c1c(ccc(C)c1C)C(=O)C2=O, the TGI is reported as 4.39 µM.
Work on NC(=O)NO yielded a TGI greater than 2500 µM.
With CCCCCCCCCCCCCCCC[N+](C)(C)CCN(Cc1ccc(OC)cc1)c1ncccn1 the GI50 was 3.04 µM and the TGI was 17.1 µM.
C(=C\c1nccs1)/c1cccc(/C=C/c2nccs2)n1 gave a TGI greater than 50 µM.
Nc1ccc(C2NC(=O)Cc3c2ccc2ccccc32)cc1 (centres undefined) was tested, and the TGI was greater than 100 µM.
C=C(C)[C@@H]1CC[C@]2(C(=O)NCCNCCNCCN)CC[C@]3(C)[C@H](CC[C@@H]4[C@@]5(C)CC[C@H](O)C(C)(C)[C@@H]5CC[C@]43C)[C@@H]12 gave a GI50 of 15.1 µM and a TGI of 32.5 µM.
Compound O=c1[nH]c(=O)n(COCCO)c2ccc(Br)cc12 has a TGI greater than 100 µM.
O=C(/C=C/c1ccc(Cl)c(Cl)c1)c1ccc(F)cc1 was tested, and the TGI was greater than 100 µM.
Compound O=C1Nc2ccccc2C1Cc1ccc([N+](=O)[O-])cc1 (centres undefined) has a TGI greater than 100 µM.
Work on C=CN1C(=O)OC[C@@H]1c1ccccc1 yielded a TGI greater than 100 µM.
Cc1ccc(S(=O)(=O)NNC(=O)c2sc(-c3nc(C)c(C(=O)NNS(=O)(=O)c4ccc(C)cc4)s3)nc2C)cc1 gave a TGI greater than 100 µM.
For N=C(N)C(N=Nc1ccccc1)C(N)=O (centres undefined), the TGI was greater than 100 µM.
COc1ccc(-c2cnnn2-c2cc(OC)c3c(c2)OCO3)cc1 gave a GI50 of 0.673 µM and a TGI greater than 100 µM.
For COc1ccc2c(c1)c(-c1nc(-c3c[nH]c4ncccc34)cs1)cn2CCCCN1CCOCC1, the GI50 was 1.82 µM and the TGI was 5.13 µM.
In the case of N#Cc1c(-c2ccc(Cl)cc2)c(C#N)c(=O)n(NS(=O)(=O)c2ccccc2)c1S, the TGI is reported as greater than 100 µM.
COc1ccc(C2C3CCc4ccccc4C3=NN2S(=O)(=O)c2ccc(Cl)cc2)cc1 (centres undefined) showed a TGI greater than 100 µM.
Compound CC(=O)Oc1ccc2c(C)cc(=O)oc2c1 has a TGI greater than 100 µM.
Compound CC(CN1CCN(C)CC1)CN1c2ccccc2Sc2ccc(C(F)(F)F)cc21 (centres undefined) has a GI50 of 4.9 µM and a TGI of 19 µM.
Compound COc1ccc(Cc2c(N)[nH]c(=O)n(C)c2=O)cc1 has a TGI greater than 100 µM.
With O=C1NCCCC12CCCNC2=O the TGI was greater than 100 µM.
Work on COc1ccc(C/C(C)=C(\c2ccc(OCCN3CCOCC3)cc2)c2ccc(OC(=O)Cc3ccccc3)cc2)cc1 yielded a GI50 of 1.19 µM and a TGI of 20 µM.
With OCC1OC(Oc2cc(O)cc(/C=C/c3ccc(O)cc3)c2)C(O)C(O)C1O (centres undefined) the TGI was greater than 100 µM.
For OCC(O)C(OC1OC(CO)C(O)C(O)C1O)c1nn(-c2ccccc2)c2nc3cc(Cl)c(Cl)cc3cc12 (centres undefined), the TGI was greater than 100 µM.
CC1=CCC(OC(=O)C(C)(C)CCC(O)(C(=O)OC2(C(C)C)CCC3(C)OC3C2)C(C)C)(C(C)C)CC1 (centres undefined) gave a GI50 of 0.757 µM and a TGI of 1.46 µM.
C=CCNCCCN1C(=O)c2ccc3c4c(ccc(c24)C1=O)C(=O)N(CCCNCC=C)C3=O was tested, and the GI50 was 0.297 µM and the TGI was 0.883 µM.
For CCOP(=O)(OCC)/C(C#N)=C/c1ccc(-c2ccc(F)cc2F)o1, the TGI was 32.2 µM.
With CCN(CCCN(CC)C(=O)Nc1ccccc1)C(=O)Nc1ccccc1 the TGI was greater than 100 µM.
CN(C)c1ccc(-c2cc(-c3ccc(Nc4nc(Nc5ccccc5)nc(Nc5ccc(Cl)cc5)n4)cc3)nc(N)n2)cc1 was tested, and the GI50 was 3.51 µM and the TGI was 48.5 µM.
Compound C=CCOC1=C(OCC=C)C(C2COC(C)(C)O2)OC1=O (centres undefined) has a TGI greater than 100 µM.
N#CCCSC1SC(=C2SC3=C(SCCS3)S2)SC1SCCC#N (centres undefined) showed a TGI greater than 100 µM.
Compound CCN1CCN(CC(=O)Nc2nc3ccc(NCc4ccc(Cl)cc4)cc3s2)CC1 has a GI50 of 2.52 µM and a TGI of 6.6 µM.
With c1ccc(-c2ccc(-c3cc4ccccc4[nH]3)cc2)cc1 the TGI was greater than 100 µM.
